Test results as given in PubChem BioAssay AID1460 (National Center for Advancing Translational Sciences (NCATS), 2008).
Values joined by “and” are separate entries in the source; they are usually repeats but may differ in a detail not shown here. Equal values may be shown once. The campaign covered roughly 270,000 compounds. About 5,800 (2.1%) were called active. Inconclusive results, whose numbers are uncertain, are shown with a selection of clear calls. Calls follow the shape of the dose curve; as a rule, active = well fitted inhibition curve with a large enough effect; inconclusive = small, poorly fitted or top-dose-only effect; inactive = flat fitted curve, though single readings scatter. A potency beside an inconclusive call is a rough fit, not a confirmed value.
Also: nearly all actives have a fitted effect of over 55% in size.
Potency is read from the fitted curve at half-maximal effect; tags tell the direction and shape of the fitted curve.

The molecules below were run against Microtubule-associated protein tau (Homo sapiens) (UniProt P10636) (assay: qHTS for Inhibitors of Tau Fibril Formation, Thioflavin T Binding). Conditions: recombinant tau K18 P301L (four-repeat tau fragment), heparin-induced fibrillization, ThT fluorescence; series mostly up to 57.4 µM.
Sequence of UniProt P10636 (P10636 whole entry, looked up, the tested form may be a part): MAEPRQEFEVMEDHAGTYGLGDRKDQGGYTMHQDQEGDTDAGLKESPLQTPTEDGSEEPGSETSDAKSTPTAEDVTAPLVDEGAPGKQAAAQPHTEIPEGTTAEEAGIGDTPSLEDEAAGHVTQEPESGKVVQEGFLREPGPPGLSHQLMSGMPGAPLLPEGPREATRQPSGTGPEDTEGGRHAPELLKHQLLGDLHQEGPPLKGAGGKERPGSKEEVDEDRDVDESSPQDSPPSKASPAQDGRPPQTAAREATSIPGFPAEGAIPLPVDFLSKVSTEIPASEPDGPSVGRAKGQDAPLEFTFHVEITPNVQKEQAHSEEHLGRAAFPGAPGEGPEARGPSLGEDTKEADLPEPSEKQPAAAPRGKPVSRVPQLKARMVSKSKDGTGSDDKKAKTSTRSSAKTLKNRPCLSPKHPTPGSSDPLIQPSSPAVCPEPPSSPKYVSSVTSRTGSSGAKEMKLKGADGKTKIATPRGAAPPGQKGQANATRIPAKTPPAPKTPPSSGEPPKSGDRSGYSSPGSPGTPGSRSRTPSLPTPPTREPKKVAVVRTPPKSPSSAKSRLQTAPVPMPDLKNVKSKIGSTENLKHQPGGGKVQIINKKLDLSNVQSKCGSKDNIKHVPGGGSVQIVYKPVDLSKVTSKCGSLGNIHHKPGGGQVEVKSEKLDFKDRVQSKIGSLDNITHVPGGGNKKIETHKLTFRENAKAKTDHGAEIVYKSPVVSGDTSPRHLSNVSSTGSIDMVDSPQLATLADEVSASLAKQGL
How it was run: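 Heparin-induced fibrillization of the P301L-mutant K18 repeat-domain fragment of human tau was followed by ThT binding in quantitative high-throughput format.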
For `Cn1c(=O)c2c(nc(N/N=C/c3ccc(OC(=O)c4ccco4)cc3)n2Cc2ccccc2)n(C)c1=O`, the Potency was inconclusive: 14.1 µM [inhibitor, partial curve].
With `CC(=C/c1ccccc1)/C=N/Nc1nc(N2CCOCC2)nc(N2CCOCC2)n1` the Potency was inconclusive: 39.8 µM [inhibitor, single point].
For `O=C(N/N=C\c1ccc([N+](=O)[O-])s1)c1cncc(Br)c1`, the Potency was active: 14.1 µM.
`Cc1cccc(NC(=O)Cn2c(=O)ccc3cc(S(=O)(=O)N4CCCC4)ccc32)c1C` was tested, and the Potency was “inactive”.
`CN(C)c1ccc(NC(=O)COC(=O)CCC(=O)c2ccc(F)cc2)cc1` was tested, and the Potency was inconclusive: 20 µM [inhibitor, partial curve].
`CC(=O)c1ccc(NC(=O)C2CCC(CNS(=O)(=O)c3cccs3)CC2)cc1` (stereo not drawn) was tested, and the Potency was inconclusive: 10 µM [inhibitor, partial curve].
`COc1cccc(Cc2nc3ccccc3nc2SCC(=O)NCc2ccc(C)cc2)c1` was tested, and the Potency was “inactive”.
In the case of `Oc1c(CN2CCc3ccccc3C2)cc(Cl)c2cccnc12`, the Potency is reported as inconclusive: 31.6 µM [inhibitor, partial curve].
In the case of `Cc1ccc(P(=O)(CSC(=N)N)c2ccc(C)cc2)cc1`, the Potency is reported as active: 12.6 µM.
For `Clc1ccc(-n2nnc(-c3nccs3)n2)cc1Cl`, the Potency was inconclusive: 28.2 µM [inhibitor, single point].
With `COc1ccc(-n2nc3cc(C)c(NC(=S)NC(=O)c4ccccc4C)cc3n2)cc1` the Potency was inconclusive: 8.91 µM [inhibitor, partial curve].
For `Cc1cccc(CCNC(=O)CN(c2ccc(C(C)C)cc2)S(=O)(=O)c2c(C)nn(C)c2C)c1`, the Potency was “inactive”.
In the case of `CCOC(=O)CSc1nc2cc(C(=O)NCC3CCCO3)ccc2c(=O)n1Cc1ccco1` (stereo not drawn), the Potency is reported as “inactive”.
With `Cc1ccccc1C1CCCN(C(=O)c2cc(COc3c(F)cccc3F)on2)C1` (stereo not drawn) the Potency was inconclusive: 11.2 µM [inhibitor, partial curve].
For `COc1ccc(-c2onc(C)c2-c2cnn(-c3ccccc3)c2)c(O)c1C`, the Potency was “inactive”.
In the case of `O=C(COc1ccc(Cl)cc1)Nc1ccc2oc(-c3ccncc3)nc2c1`, the Potency is reported as inconclusive: 7.08 µM [inhibitor, partial curve, poor fit].
For `CO[C@]12C[C@@H](COC(=O)c3cncc(Br)c3)CN(C)[C@@H]1Cc1cn(C)c3cccc2c13`, the Potency was “inactive and inconclusive: 28.2 µM [inhibitor, partial curve]”.
`CCN(C(=O)Cn1cnc2onc(-c3ccc(F)cc3)c2c1=O)c1cc(C)ccc1C` was tested, and the Potency was “inactive”.
`CCn1c(C(=O)NCc2cc(Br)ccc2OC)cc2oc3ccccc3c21` was tested, and the Potency was “inactive”.
`COc1ccc(-c2[nH]n(-c3ccc([N+](=O)[O-])cc3)c(=O)c2C=NCc2ccccc2)cc1` was tested, and the Potency was inconclusive: 5.01 µM [inhibitor, partial curve].
In the case of `Cc1ccc(NC(=O)c2cnc(N3CCN(c4ccccn4)CC3)c3ccccc23)c(Br)c1`, the Potency is reported as inconclusive: 11.2 µM [inhibitor, partial curve].
For `COC(=O)CCCC1=CC2=CC(=O)C(C)(OC(=O)c3cccs3)C(=O)C2=CN1C1CCCC1` (stereo not drawn), the Potency was active: 25.1 µM.
`O=C(OCC(=O)N1CCc2ccccc21)c1ccccc1` was tested, and the Potency was inconclusive: 14.1 µM [inhibitor, single point].
In the case of `Cc1ccccc1-c1nnc(SCC(=O)N(C)C2CCCCC2)o1`, the Potency is reported as “inactive”.
In the case of `O=C(CSc1ccc(-c2cccs2)nn1)c1cccs1`, the Potency is reported as inconclusive: 10 µM [inhibitor, partial curve, poor fit].
With `CCOC(=O)c1sc2nc(CSc3ccccc3)nc(N3CCCN(C)CC3)c2c1C` the Potency was inconclusive: 15.8 µM [inhibitor, partial curve].
For `Cc1ccc(C)c(CN2C(=O)C3(c4ccccc42)N(c2ccc(Cl)cc2)C(=O)CS3(=O)=O)c1` (stereo not drawn), the Potency was “inactive”.
For `CCN(CC)c1ccc(/C=C2\C(=O)c3ccc(C(=O)O)cc3C2=O)cc1`, the Potency was active: 2 µM.
For `COc1ccc(Br)cc1CN1CCCCCCC1`, the Potency was “inactive”.
For `CC(C)Cc1cc(C(=O)Nc2sc3c(c2C#N)CCC3)no1`, the Potency was inconclusive: 15.8 µM [inhibitor, partial curve].
For `O=C(Cc1csc(Nc2nc(=S)[nH]c3ccccc23)n1)N1CCN(c2cccc(C(F)(F)F)c2)CC1`, the Potency was “inactive”.
For `CC1(C)CC(=O)C(C2C3=C(CC(C)(C)CC3=O)Oc3ccc4ccccc4c32)C(=O)C1` (stereo not drawn), the Potency was inconclusive: 15.8 µM [inhibitor, partial curve].
In the case of `O=C(O)c1ccc(NS(=O)(=O)c2ccc3c(c2)C(=O)c2ccccc2C3=O)cc1`, the Potency is reported as inconclusive: 14.1 µM [inhibitor, partial curve].
`Cc1nn(-c2ccccc2)c2sc(-c3n[nH]c(=S)o3)cc12` was tested, and the Potency was inconclusive: 28.2 µM [inhibitor, partial curve].
In the case of `COc1ccc2nc(Nc3nc(C)c(CCC(C)C)c(=O)[nH]3)nc(C)c2c1`, the Potency is reported as inconclusive: 2.24 µM [inhibitor, partial curve].
`O=C(NNc1cc(N2CCOCC2)nc(N2CCOCC2)n1)c1ccc([N+](=O)[O-])cc1` was tested, and the Potency was inconclusive: 25.1 µM [inhibitor, partial curve].
`COc1ccc(C(=O)/C=C/Nc2ccc(S(N)(=O)=O)cc2)cc1OC` was tested, and the Potency was inconclusive: 0.282 µM [inhibitor, full curve].
With `CC(=O)c1ccc(NC(=O)c2nc(-c3ccc(C)cc3)n3c2CCCCC3)cc1` the Potency was “inactive”.
With `COc1cc(/C=C(/C#N)c2nc(-c3cc4ccccc4oc3=O)cs2)cc([N+](=O)[O-])c1O` the Potency was inconclusive: 2 µM [inhibitor, full curve].
For `CC(C)(C)c1cc(C(=O)/C=C/c2ccc(C(=O)O)cc2)cc(C(C)(C)C)c1`, the Potency was inconclusive: 25.1 µM [inhibitor, partial curve].
`CC(=O)Nc1nnc(-c2ccccn2)o1` was tested, and the Potency was “inactive”.
With `CCCC1c2ccc(C)n2CCN1C(=O)Nc1ccc(F)cc1` (stereo not drawn) the Potency was inconclusive: 39.8 µM [inhibitor, partial curve].
For `CCOC(=O)/C(=C\C=C1/Sc2cc(OCC)c(OCC)cc2N1CC)C(C)=O`, the Potency was inconclusive: 35.5 µM [inhibitor, single point].
